For orientation: koff means the first-order rate constant of dissociation. A high value points to a short-lived complex.

For experiment [1], the target named is T1, mouse 129 SIRP-α D1 domain (mouse (129 strain), UniProt P97797 32-150).
T1 construct: also called m129
T1 chain: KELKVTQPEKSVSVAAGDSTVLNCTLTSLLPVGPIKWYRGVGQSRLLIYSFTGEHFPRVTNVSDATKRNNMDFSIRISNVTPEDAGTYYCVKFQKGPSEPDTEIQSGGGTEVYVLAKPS
In words: SPR. The essentials:
(§1)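 Dissociation rate constants (koff) were measured on a ProteOn XPR36 instrument by Langmuir model fitting. Antibody clones in scFv-Fc format were captured from pre-filtered culture media onto a GLC chip with about 4000 RU of amine-coupled anti-human IgG Fc. SIRP analytes ran in PBS pH 7.4 with 0.01% Tween-20 at 25° C, and the model used was 1:1, applied to data double-referenced against interspot and buffer-blank responses.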
A general note: Surface plasmon resonance follows binding to a sensor surface in real time, without labels.

In experiment [2] the target is T2, C57BL/6 mouse SIRP-α D1 domain (mouse (C57BL/6 strain), UniProt P97797 32-148).
T2 sequence: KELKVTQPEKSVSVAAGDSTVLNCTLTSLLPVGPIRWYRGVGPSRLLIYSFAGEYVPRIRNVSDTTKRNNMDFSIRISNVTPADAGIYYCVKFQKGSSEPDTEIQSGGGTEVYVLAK
In words: SPR. The procedure, abridged: as §1

Experiment [3] addresses T3, high affinity SIRP-α D1 variant CV1-3.
T3 chain: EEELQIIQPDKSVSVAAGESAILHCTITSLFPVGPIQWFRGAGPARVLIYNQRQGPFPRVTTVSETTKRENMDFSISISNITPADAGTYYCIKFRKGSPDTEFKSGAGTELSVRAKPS
In words: SPR, Langmuir fit. The procedure, abridged: as §1

Another experiment addresses T4, human SIRPγ isoform 1 (human, UniProt Q9P1W8 29-147).
T4 construct: also called SIRPg; sirpg
In words: SPR, Langmuir fit. The essentials:
as §1

In experiment [4] the target is T5, human SIRP-α v1 D1 domain (human, UniProt P78324 31-149).
T5 construct: also called human v1
The experiment is described as follows: SPR, Langmuir fit. The procedure, abridged:
as §1

Experiment [5] has as its target T6, human SIRP-α v2 D1 domain (human).
T6 construct: also called human v2
In words: SPR, Langmuir fit. The procedure, abridged:
as §1

The target in experiment [6] is T7, cynomolgus SIRP-α D1 domain (cyno1) (cynomolgus monkey, UniProt Q5TFQ8 30-148 (human entry), limits assumed).
T7 chain: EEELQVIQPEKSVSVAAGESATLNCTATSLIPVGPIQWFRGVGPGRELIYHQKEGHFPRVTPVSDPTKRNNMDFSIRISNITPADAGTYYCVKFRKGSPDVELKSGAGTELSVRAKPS
The experiment is described as follows: SPR, Langmuir fit. The procedure, abridged:
as §1

The target of experiment [7] is T8, cynomolgus SIRP-α D1 domain (cyno2) (cynomolgus monkey, UniProt Q5TFQ8 30-148 (human entry), limits assumed).
T8 chain: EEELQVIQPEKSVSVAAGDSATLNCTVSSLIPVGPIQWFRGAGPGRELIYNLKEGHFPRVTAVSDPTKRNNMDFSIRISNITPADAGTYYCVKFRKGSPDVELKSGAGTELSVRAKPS
The experiment is described as follows: SPR, Langmuir fit. The procedure, abridged:
as §1

For a further experiment, the target named is T9, human SIRPβ isoform 1 (human, UniProt O00241 30-148).
T9 construct: also called SIRPb; sirpb1
In words: SPR, Langmuir fit. The procedure, abridged:
as §1

T5 sequence (P78324 31-149 limits assumed): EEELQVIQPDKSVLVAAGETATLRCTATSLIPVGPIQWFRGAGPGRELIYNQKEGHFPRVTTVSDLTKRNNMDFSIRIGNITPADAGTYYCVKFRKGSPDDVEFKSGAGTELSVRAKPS
Sequence of human SIRPγ isoform 1 (Q9P1W8 29-147 limits assumed): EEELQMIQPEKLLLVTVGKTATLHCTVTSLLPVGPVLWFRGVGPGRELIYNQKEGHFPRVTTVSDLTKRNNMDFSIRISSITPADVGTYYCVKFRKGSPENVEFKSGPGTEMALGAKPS
Sequence of human SIRPβ isoform 1 (O00241 30-148 limits assumed): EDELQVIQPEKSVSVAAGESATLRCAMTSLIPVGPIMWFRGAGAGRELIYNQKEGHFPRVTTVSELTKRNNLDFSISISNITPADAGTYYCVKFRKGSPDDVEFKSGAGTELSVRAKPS

B1: S122 (scFv)
scFv: EIVLTQSPATLSVSPGERATFSCRASQNVKNDLAWYQQRPGQAPRLLIYAARIRETGIPERFSGSGSGTEFTLTITSLQSEDFAVYYCQQYYDWPPFTFGGGTKVEIKGQSSRSSGGGGSSGGGGSDVQLVESGGGVVRPGESLRLSCAASGFRFSNFAMTWVRQAPGEGLEWVSTIGSGDTYYADSVKGRFTISRDNSKNTLYLQMNSLRAEDTAVYYCAKDSTVSWSGDFFDYWGLGTLVTVSSSL[letters of human IgG1 Fc with C220S (EU numbers) and a few adjoining residues left out]
Regarding B1, the binding result in experiment [1] and in [2] was “no binding (tested: Koff > 5 × 10^3 (legend))” in each case. In addition, the koff in experiment [3] stood at 0.000663 s⁻¹; in the experiment with human SIRPγ isoform 1, 0.000361 s⁻¹; in experiment [4], 0.000498 s⁻¹; in experiment [5], 0.000226 s⁻¹; in experiment [6] it was 0.000266 s⁻¹; in experiment [7], 0.000327 s⁻¹. Further, the koff with human SIRPβ isoform 1 turned out to be 0.000352 s⁻¹.

The values are drawn from patent US20210363269A1 (ALX ONCOLOGY, published 2021).
